# PubChem BioAssay AID1345082 (National Center for Advancing Translational Sciences (NCATS), 2018)
# In all, about 94,000 compounds went through this assay and about 4,000 (4.3%) were called active. Inconclusive means that the source gave no clear call. Such entries were picked first, then a sample of the others. Calls come from the whole dose curve; as a rule, active = well fitted inhibition curve with a large enough effect; inconclusive = small, poorly fitted or top-dose-only effect; inactive = no such curve, though single readings can be large or run the other way. Potencies of inconclusive entries are doubtful fits and often do not repeat.
# Test: Cytotoxic Profiling in NIH 3T3 Cell Line of Diverse Libraries Using Quantitative High-Throughput Screening; note: nearly all actives have a fitted effect of over 55% in size
# Conditions: NIH 3T3 viability, CellTiter-Glo ATP luminescence, 48-72 h; activity change, negative = cytotoxicity: at 96.7 µM (top of the series) unless noted; series mostly up to 96.7 µM
# Summary of the method: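 Mouse fibroblast NIH 3T3 cells, 400 per well, received compound via pintool and were incubated for 48 or 72 hr prior to CellTiter-Glo ATP luminescence measurement.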
# % is set by controls: 0 for no effect and ±100 for the full control effect; potency is the fitted concentration of half-maximal effect; tags give direction and shape of the fitted curve.
Structure (SMILES),"activity change, negative = cytotoxicity",Potency
O=C(Cn1nc(-c2ccco2)ccc1=O)NC1CCCc2c1[nH]c1c(Cl)cccc21 (centres undefined),inactive: -2.22%,–
COc1cc(CN2C[C@@H](CO)[C@H](c3ccncc3)C2)ccc1F,inactive: -24.6%,–
Cc1nc(-c2ccc(F)cc2)n(Cc2ccccc2F)c(=O)c1CCO,–,"inconclusive: 44.7 µM [inhibitor, partial curve, poor fit]"
COCCCn1c(=O)c(C(=O)N2CCC(c3ccccc3)CC2)nc2cccnc21,inactive: -9.4%,–
OCC1(CCOc2ccccc2)CCN(c2nnnn2-c2ccccc2)CC1,–,"inconclusive: 56.2 µM [inhibitor, partial curve, poor fit]"
CCNC(=O)O[C@@H]1CO[C@H]2[C@@H]1OC[C@@H]2Nc1nccc(-c2ccc(-c3ccccc3)cc2)n1,–,"inconclusive: 20 µM [inhibitor, full curve]"
O=C(C1CCC1)N1CCC(c2noc(-c3ccncc3)n2)C1 (centres undefined),inactive: -0.844%,–
c1ccc(Cn2cc(CN3CCN(c4ccncc4)CC3)c(-c3cc4ccccc4o3)n2)cc1,–,active: 28.2 µM
CN(C(=O)c1cnc2n1CCN(CCc1ccccc1)CC2)c1ccccc1,–,"inconclusive: 89.1 µM [inhibitor, partial curve, poor fit]"
Cc1cccc(N2CCN(c3ncncc3-c3nc(-c4ccccc4)no3)CC2)c1,–,"inconclusive: 50.1 µM [inhibitor, partial curve, poor fit]"
COc1ccc(OCc2nc(C)c(CCO)c(=O)n2CC(=O)Nc2cccc(C)c2C)cc1,–,"inconclusive: 17.8 µM [inhibitor, full curve, poor fit]"
Cc1ncsc1CN1CCCN(Cc2ccncc2)C(c2ccccc2)CC(=O)NCC1 (centres undefined),–,"inconclusive: 44.7 µM [inhibitor, partial curve, poor fit]"
COc1ccc(-c2nc(-c3ccccc3)nc3c2CN(C(=O)C2CC2)CC3)cc1,–,"inconclusive: 44.7 µM [inhibitor, partial curve, poor fit]"
COc1ccc(OC)c(CNC(=O)CCC[C@H]2NC[C@@H]3C[C@H]2CN(Cc2ccccc2)C3)c1,–,"inconclusive: 70.8 µM [inhibitor, single point]"
Cc1ccccc1C(=O)N1CCCN(c2cc(-c3ccc(F)cc3)[nH]n2)CC1,inactive: -22.3%,–
COc1ccccc1CN1CCC2(CC1)OC(=O)N(Cc1ccccc1)C2(C)c1ccccc1 (centres undefined),–,"inconclusive: 44.7 µM [inhibitor, partial curve, poor fit]"
COc1ccc(Cn2c(C3CCN(C(=O)Cc4cccc(OC)c4)CC3)n[nH]c2=O)cc1,inactive: -8.33%,–
CC(C)NC(=O)c1ccc2c(c1)C1(CCN(CC3CC3)C1)CN2Cc1ccccc1 (centres undefined),–,active: 89.1 µM
Cc1ccc(Nc2ccnc(N3CCC(NC(=O)c4ccc(Cl)nc4)CC3)n2)cc1,–,active: 39.8 µM
O=C(c1ccc(F)cc1)N1CCN(C(=O)c2nnn3c2COC(c2ccc(Cl)cc2)C3)CC1 (centres undefined),–,"inconclusive: 20 µM [inhibitor, full curve, poor fit]"
O=C(c1ccco1)N1CCCCC1c1nc(C2CC2)n[nH]1 (centres undefined),inactive: 0.0565%,–
COc1ccc(-c2cc(C[C@H]3CNCC[C@H]3CC(=O)NCc3ccc4c(c3)OCO4)no2)cc1,–,active: 79.4 µM

Structure (SMILES),"activity change, negative = cytotoxicity",Potency
CCc1cnc(N2CCC(Oc3cnc4c(ccn4CCN[S+](C)(=O)[O-])c3)CC2)nc1,–,"inconclusive: 28.2 µM [inhibitor, partial curve, poor fit]"
CC1=C(C(=O)OC(C)C)C(c2ccc(C)cc2)N2C(CC(=O)N(C)Cc3ccco3)=CSC2=N1 (centres undefined),–,"inconclusive: 50.1 µM [inhibitor, partial curve, poor fit]"
COCCNC(=O)c1cccc2c1CCN2C(=O)C1CC1,inactive: 1.65%,–
Cc1noc(C)c1C(=O)N1CC(N(C)Cc2cccnc2)C1,inactive: 4.12%,–
COc1cccc(CN2CCc3nc(C(=O)Nc4nc(C)cs4)oc3CC2)c1,–,"inconclusive: 56.2 µM [inhibitor, partial curve, poor fit]"
CC(C)(C)OC(=O)NCCCC(=O)N1CCN(c2cccc(C=O)c2)C(=O)C1,–,"inconclusive: 79.4 µM [inhibitor, partial curve, poor fit]"
CN(C)c1cccc(-c2cnc(Nc3cccnc3)c3c2CCO3)c1,–,active: 50.1 µM
O=C1N2CCCC2CN1C1CCN(Cc2ccc(OC(F)(F)F)cc2)CC1 (centres undefined),–,"inconclusive: 39.8 µM [inhibitor, partial curve, poor fit]"
COc1ccc(Cn2c(=O)c(C(=O)N3CCN(C(=O)c4cccc(Cl)c4)CC3)nc3cccnc32)cc1,–,"inconclusive: 50.1 µM [inhibitor, partial curve, poor fit]"
CN1Cc2ncnc(NCC3CCCCC3)c2CN(c2ccccc2)C1=O,–,"inconclusive: 50.1 µM [inhibitor, partial curve, poor fit]"
COc1cccc(CC(=O)N2CCCN(Cc3ccncc3)C(c3ccccc3)CC(=O)NCC2)c1 (centres undefined),inactive: -22.3%,–
Cc1nn(-c2ccccc2)c(Oc2ccc(F)cc2F)c1CCC(=O)N1CCSCC1,–,"inconclusive: 44.7 µM [inhibitor, partial curve, poor fit]"
COc1ccc(NC(=O)c2ccc3c(c2)NC(C)(COCC2CC2)CO3)cn1 (centres undefined),–,"inconclusive: 79.4 µM [inhibitor, partial curve]"
Cc1cn2nc(C(=O)Nc3ccc(C)c(F)c3)cc2c(N(C)Cc2ccccc2)n1,–,"inconclusive: 7.94 µM [inhibitor, full curve, poor fit]"
COC(=O)CNC(=O)c1nc(-c2ccc(F)cc2)c2cnccn12,inactive: -12.4% [at 138 µM],–
NC1(C(=O)N2CCCC(CCc3cccc(C(F)(F)F)c3)C2)CC1 (centres undefined),–,"inconclusive: 56.2 µM [inhibitor, partial curve, poor fit]"
Cn1cc(CC(=O)N2CCCc3ncc(C(=O)NCCc4ccccc4)cc32)c2ccccc21,–,"inconclusive: 35.5 µM [inhibitor, partial curve]"
O=C(C[C@@H]1CCNC[C@@H]1Cc1cc(CN2CCOCC2)on1)NCCN1CCOCC1,inactive: -3.83%,–
CCOc1cccc(CNC(=O)CC2CCCCN(Cc3ccccc3)C2=O)c1 (centres undefined),–,"inconclusive: 44.7 µM [inhibitor, partial curve, poor fit]"
Cc1ccc(-c2nc(C3CC(=O)N(c4ccc(F)cc4)C3)no2)c(C)c1 (centres undefined),–,"inconclusive: 50.1 µM [inhibitor, partial curve, poor fit]"
CS(=O)(=O)c1ccc(-c2cnc([C@@H]3COCCN3Cc3ccc(Cl)cc3)[nH]2)cc1,–,"inconclusive: 89.1 µM [inhibitor, partial curve, poor fit]"
O=C(Nc1ccccc1)NC1CCN(Cc2cccc(-c3ccc(F)c(F)c3)c2)CC1,–,active: 15.8 µM

Structure (SMILES),"activity change, negative = cytotoxicity",Potency
CC1(c2ccccc2)N(Cc2ncccn2)C(=O)OC12CCN(C(=O)Cc1ccc(O)cc1)CC2 (centres undefined),–,"inconclusive: 70.8 µM [inhibitor, single point]"
Cc1cn2nc(C(=O)NCCCc3ccccc3)cc2c(N2CCSCC2)n1,–,"inconclusive: 50.1 µM [inhibitor, partial curve, poor fit]"
COc1ccc(Cl)cc1C(=O)N1CCC(COc2ccc3c(cnn3CCC(=O)O)c2)CC1,–,"inconclusive: 28.2 µM [inhibitor, full curve, poor fit]"
CC[C@H]1CN(S(=O)(=O)c2c(C)noc2C)CC[C@H]1CC(=O)Nc1nccs1,–,"inconclusive: 100 µM [inhibitor, partial curve, poor fit]"
O=C(C1CCCN1C(=O)c1ccc(F)cc1)N1CCCC(c2nc3ncccc3[nH]2)C1 (centres undefined),inactive: -19.1%,–
Cc1noc2c(Nc3ccc(C(N)=O)cc3)cc(-c3cccnc3)nc12,–,active: 20 µM
COC(=O)c1ccc(CNC(=O)CN2CCN(c3nccnc3C#N)CC2)o1,inactive: -1.64%,–
O=C(C[C@@H]1CCNC[C@@H]1Cc1cc(CN2CCCCC2)on1)NCc1cccs1,inactive: 1.58% [at 138 µM],–
OCCc1ccc(Nc2cnc3ccc(N4CCOCC4)nn23)cc1,–,"inconclusive: 31.6 µM [inhibitor, partial curve]"
C=CCNC(=O)c1coc(COc2ccc3c(c2)C(c2ccc(C)cc2)N(C(=O)C2CC2)CC3)n1 (centres undefined),–,"inconclusive: 28.2 µM [inhibitor, full curve]"
N#Cc1cccc(-c2c(C(=O)NCCc3ccccc3F)nc3sccn23)c1,inactive: -28.4%,–
Cc1ccc(C)c(-c2cc3c(=O)n(CCNC(=O)c4cccc(N(C)C)c4)ccn3n2)c1,–,"inconclusive: 50.1 µM [inhibitor, partial curve, poor fit]"
CCCn1c(C)cnc1CC1CCCN(Cc2cccc(OC)c2)C1 (centres undefined),–,"inconclusive: 44.7 µM [inhibitor, partial curve, poor fit]"
N#Cc1cccc(-c2c(C(=O)NCc3ccccn3)nc3sccn23)c1,inactive: -29.5%,–
CCC1(C(=O)NCc2ccc(N3CCC(C)CC3)cc2)CCCCC(=O)N1 (centres undefined),–,"inconclusive: 56.2 µM [inhibitor, partial curve, poor fit]"
CC(C)c1ccc(CC(=O)N2CCCc3ncc(C(=O)NCCc4ccccc4)cc32)cc1,–,"inconclusive: 50.1 µM [inhibitor, partial curve, poor fit]"
O=C(Cc1ccsc1)NC1CCc2nnc(C3CC3)n2CC1 (centres undefined),inactive: -9.52%,–
O=C(c1n[nH]c2ccccc12)N1CC(Oc2ccccc2-c2nc(C3CC3)no2)C1,–,"inconclusive: 50.1 µM [inhibitor, partial curve, poor fit]"
Cc1ccc(C(=O)N2CCCC(c3noc(COc4ccccc4)n3)C2)s1 (centres undefined),–,"inconclusive: 44.7 µM [inhibitor, partial curve, poor fit]"
COc1ccc(N2CCC(NC(=O)c3ccc(N(C)C)cc3)C2=O)cc1 (centres undefined),–,"inconclusive: 44.7 µM [inhibitor, partial curve]"
